Laboratory results as given in PubChem BioAssay AID1745853 (National Center for Advancing Translational Sciences (NCATS), 2022).
The list shows a part of the results. The main result of the screen is listed elsewhere. These columns were measured beside it and carry no call. Square brackets hold non-standard residues; d marks the D form. Peptide text beside a SMILES is read from it. ξ: configuration not given here. ξPhe(βξ-Me) = CC(c1ccccc1)C(N)C(=O)O; GABA = NCCCC(=O)O

Columns and labels:
Experiment in all cases: Primary Screen for Target Class Profiling of Small Molecule Inhibitors of Methyltransferases
[1] = biological target: Glycine N-methyltransferase (Homo sapiens) (UniProt Q14749); conditions: purified enzyme, MTase-Glo SAH luminescence; measured here: GNMT inhibition; at 40 µM; stronger effect = lower value
In short: (§1)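 Each enzyme was assayed with SAM and its substrate. SAH formation detected by MTase-Glo luminescence; single-point 40 uM screen[…].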

[2] = biological target: Guanidinoacetate N-methyltransferase (Homo sapiens) (UniProt Q14353); conditions: purified enzyme, MTase-Glo SAH luminescence; measured here: GAMT inhibition; at 40 µM; stronger effect = lower value
In short: as §1

[3] = biological target: Histamine N-methyltransferase (Homo sapiens) (UniProt P50135); conditions: purified enzyme, MTase-Glo SAH luminescence; measured here: HNMT inhibition; at 40 µM; stronger effect = lower value
In short: as §1

[4] = biological target: Nicotinamide N-methyltransferase (Homo sapiens) (UniProt P40261); conditions: purified enzyme, MTase-Glo SAH luminescence; measured here: NNMT inhibition; at 40 µM; stronger effect = lower value
In short: as §1

[5] = biological target: Phenylethanolamine N-methyltransferase (Homo sapiens) (UniProt P11086); conditions: purified enzyme, MTase-Glo SAH luminescence; measured here: PNMT inhibition; at 40 µM; stronger effect = lower value
In short: as §1
On the % scale 0 is the no-effect control and ±100 the full control effect.

Row | Structure (SMILES) | activity change, negative = inhibition [1] [%] | activity change, negative = inhibition [2] [%] | activity change, negative = inhibition [3] [%] | activity change, negative = inhibition [4] [%] | activity change, negative = inhibition [5] [%]
1 | COc1cc(O)cc2c1C(=O)OC(C)C2 (stereo not given) | -0.542 | -18.9 | -1.18 | -30.3 | -2.41
2 | COc1cc2c(CCNC(C)=O)c[nH]c2cc1O | -63.7 | 2.85 | -4.95 | -11.1 | 2.5
3 | C[C@@H]1CC[C@]2(C)C(C[C@@H](O)[C@H](O)[C@]23CO3)[C@@]1(C)CCc1ccoc1 (stereo not given in full) | -1.24 | 5.7 | 8.95 | -9.12 | 0.023
4 | CCN1CC(C(=O)N(C)Cc2ccc(Oc3ccccc3)cc2)CCC1=O (stereo not given) | 0.653 | 1.42 | 1.03 | -1.76 | -1.55
5 | O=C(c1cccnc1)N1CCn2cc(C(=O)N3CCOCC3)nc2C1 | -0.314 | -0.933 | 1.92 | 0.241 | 0.977
6 | CCOc1cn(-c2ccc(F)cc2C)nc1C(=O)Nc1ccc(Oc2ccnc3cc(OC)c(OC)cc23)c(F)c1 | -0.281 | -16.9 | 7.41 | -40.7 | -5.73
7 | CCC(C)NC(=O)c1ccc2c(=O)n(CCC(C)C)c3nn(CC(=O)c4ccc(C)cc4)c(=O)n3c2c1 (stereo not given) | 0.32 | 6.42 | 7.15 | -4.28 | 0.632
8 | CC(C)CC1NC(=O)C(C(C)c2ccccc2)NC(=O)C(C(C)C)NC(=O)C(C)NC(=O)CCCNC(=O)C(Cc2c[nH]c3ccccc23)NC(=O)C(C)NC1=O (stereo not drawn) (cyclo([GABA]AV[ξPhe(βξ-Me)]LAW); configuration not given here) | 0 | 1.38 | -1.81 | -13.4 | 2.25
9 | Fc1ccc(N2CCN(CCC3OCCc4ccccc43)CC2)cc1 (stereo not given) | 2.66 | -2.14 | -26.5 | -14.6 | -9.22
10 | Cc1cc2c(cc1C1(c3ccc(C(=O)O)cn3)CC1)C(C)(C)CCC2(C)C | 3.54 | -2.23 | 10.1 | -24.9 | 4.85
11 | CC(C(=O)N1CCOCC1)n1ccc2cc(S(=O)(=O)N3CCCC3)ccc21 (stereo not given) | 5.19 | 1.15 | 3.82 | 4.66 | 2.85
12 | CCC(C)NC(=O)c1ccc2c(=O)n(C)c3nnc(SCC(=O)Nc4ccccc4C)n3c2c1 (stereo not given) | 1.43 | 0 | -1.47 | -0.93 | 2.92
13 | CCOCCCN1C(=O)c2ccc(-c3ccccc3)n2CC1(C)C(=O)NC1CCCCCC1 (stereo not given) | 4.53 | 0 | 0.025 | 1.88 | 0.494
14 | COc1ccc(CCNC(=O)c2cc3n(n2)CC(C)(C(=O)NCc2ccc(C)cc2)N(C)C3=O)cc1OC (stereo not given) | -3.31 | 3.37 | -8.9 | 5.66 | 1.41
15 | CC1(C)CC[C@]2(C(=O)O)CC[C@]3(C)C(=CCC4[C@@]5(C)C[C@@H](O)[C@H](O)[C@@](C)(CO)C5CC[C@]43C)[C@@H]2[C@@H]1O (stereo not given in full) | 2.55 | 7.37 | 9.48 | -4.25 | 7.49
16 | CC1CCC(NC(=O)C2(C)Cn3c(ccc3-c3ccco3)C(=O)N2CCCN2CCCCC2)CC1 (stereo not given) | -3.12 | 2.27 | -4.1 | -1.69 | -0.452
17 | Cc1cccc(Cn2nc3n(C)c(=O)c4ccc(C(=O)NCC(C)C)cc4n3c2=O)c1 | -0.59 | 0 | 10 | -5.09 | 4.03
18 | COc1cccc(CNc2nc3c(S(=O)(=O)c4ccc(Cl)cc4)nnn3c3ccccc23)c1 | 1.44 | 0 | 6.69 | 1.95 | 1.67
19 | COc1ccc(CCNC(=O)c2c(-c3ccccc3)cc(=O)n3c2CCC3)cc1OC | -7.73 | -9.54 | -4.34 | -10.7 | -0.609
20 | O=C(N[C@@H]1COCC[C@@H]1OCC1CC1)c1ccc2c(c1)CCCO2 | -1.37 | 1.45 | -0.058 | -1.64 | -0.871
21 | Cc1cc(OC2CN(Cc3ccnn3C)C2)ccc1F | -6.22 | -4.93 | -1.86 | -6.14 | -6.85
22 | COc1cccc(Cn2nc3n(C)c(=O)c4ccc(C(=O)NC5CCCCC5)cc4n3c2=O)c1 | -1.86 | 1.66 | 1.11 | -2.37 | 0.357
23 | CCCN1C(=O)c2c(C(=O)NCc3cccc(F)c3)ncn2CC1(C)C(=O)NC1CCCC1 (stereo not given) | 2.38 | 2.44 | 9.06 | 8.09 | 10.1
24 | CC(C)(C)c1cc2n(n1)CC(C)(C(=O)NC1CCCCC1)N(CCCc1ccccc1)C2=O (stereo not given) | -1.41 | 3 | 5.07 | -1.23 | 0.823
25 | COCC(=O)N1CCCCC1c1nc(-c2ccccc2)n[nH]1 (stereo not given) | -2.11 | 0.37 | -0.843 | -2.24 | -5.82
26 | CSCCC(=O)N1CCc2c(ncnc2N2CCOCC2)C1 | -2.64 | -2.92 | 1.76 | -1.8 | 0.226
27 | CNC(=O)c1cc(C2CC2)nc2c1c(C1CCN([S+](=O)([O-])c3c(C)noc3C)CC1)nn2C | -2.23 | -0.966 | -0.155 | -9.4 | 7.52
28 | COc1cc(/C=C/C(=O)O[C@H]2[C@H](O)[C@@H](CO)O[C@@]2(CO)O[C@H]2O[C@H](CO)[C@@H](O)[C@H](O)[C@H]2O)cc(OC)c1O | 3.37 | 7.4 | 4.36 | -5.66 | 3.8
